Molecules are shown by their SMILES. The full ranking holds about 3,600 compounds; the median of “viability index relative to DMSO control” is about 0.81, and the lowest 2% start at about 0.13. The list shows a part of the results.
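Note: 384-well serum-free SaLSSA: MitoTracker Red CMXRos staining with saponin lysis, high-content imaging, treated-well particle count divided by plate-mean count of DMSO wells.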

For the assay, the system named is Plasmodium falciparum NF54 stage V gametocytes. As to the kind of experiment: viability index relative to DMSO control (fraction); higher = less gametocyte killing. Particulars: 1.25 µM, incubation time: 72 h.
For the compound `C=C(Cl)CSc1nnc(CCNC(=O)c2ccc(C)cc2)n1-c1ccc(F)cc1`, the viability index stood at 1.12.

In the case of `COc1ccc(C2=C(c3ccc(OC)cc3)C3(c4ccccc4)C(=O)C2(c2ccccc2)C2C(=O)N(c4ccc(C)cc4)C(=O)C23)cc1` (stereo not drawn), the viability index was 0.602.

Compound `COc1ccc(C2=CC(=Cc3cccc(OC)c3OC)C(=O)O2)cc1OC` came in with a viability index of 1.06.

`CCCCN(CC)CCNC(=O)c1cc2c(-c3ccc(Cl)cc3)nn(C)c2s1` had a viability index of 0.747.

Consider `COCCOC(=O)C1=C(C)NC2=C(C(=O)CCC2)C1c1ccc(OC)c(OC)c1OC` (stereo not drawn), for which the viability index worked out at 0.698.

Regarding `COc1ccccc1Cn1c(SCc2ccc(Cl)cc2)nc2ccc(Br)cc2c1=O`, the viability index is 0.896.

For the compound `CCc1cc(C(=O)OC)c(NC(=S)NC(C)c2ccncc2)s1` (stereo not drawn), the viability index turned out to be 0.635.

Consider `Cc1cccc(C2Sc3ccccc3N=C3c4ccccc4C(=O)C32)c1` (stereo not drawn), for which the viability index amounted to 0.538.

Regarding `CCN1CCCC(Nc2ccnc3cc4ccccc4cc23)C1` (stereo not drawn), the viability index was 0.514.

`COC(=O)C1=C(OC)C(=O)OC12C=CC(=O)C=C2` returned a viability index of 0.144.

The compound `c1ccc2c(c1)CSc1sccc1C2=C1CCNCC1` gave a viability index of 0.706.

For `CCC(=O)N=c1sc2cc([N+](=O)[O-])ccc2n1CCOC`, the viability index stood at 0.868.

Take `COCCCNc1nc2nonc2nc1N(C)C1CCOCC1`: the viability index worked out at 0.994.

The compound `CSc1ccc(NC(=O)N2CCCn3cccc3C2c2ccc(C(F)(F)F)cc2)cc1` (stereo not drawn) registered a viability index of 0.863.

The compound `CCc1cccc(NC(=O)CCCn2c(=O)c3cccn3c3ccccc32)c1` returned a viability index of 0.972.

On to `Fc1cccc2sc(Nc3nc(-c4ccccn4)cs3)nc12`, for which the viability index worked out at 0.322.

As for `Brc1ccc2[nH]c3nc4ccccc4nc3c2c1`, the viability index stood at 0.699.

For `CCOC(=O)c1cnc2c(C)cccc2c1Nc1cccc(C(C)=O)c1`, the viability index came to 0.865.

The compound `O=C(C[n+]1cc(-c2ccccc2)n2c1CCC2)c1ccc(C2CCCCC2)cc1` displayed a viability index of 0.78.

With `Cc1ccc2[nH]c3c(NCCCN(C)C)ncnc3c2c1`, the viability index was found to be 0.771.

In turn, `CN(C)c1ccc2c(c1)Sc1cc(N(C)C)ccc1N2C(=O)c1ccccc1` registered a viability index of 1.13.

Consider `CCOc1ccc2nc(C)cc(Nc3ccc(OCc4ccccc4Cl)cc3)c2c1`, for which the viability index amounted to 0.595.

As for `CCOC(=O)c1cn(CC)c2cc(N(C)CCc3ccc(OC)c(OC)c3)c(F)cc2c1=O`, the viability index was determined as 0.903.

Regarding `COCCOC(=O)C1=C(C)NC2=C(C(=O)CC(c3ccc(OC)c(OC)c3)C2)C1c1ccccc1C` (stereo not drawn), the viability index is 0.873.

`COc1ccc(NC(=O)CCCCCn2c(SCC(=O)NCCc3ccc(OC)c(OC)c3)nc3ccsc3c2=O)cc1` had a viability index of 1.17.

`c1ccc(CNc2nc(Nc3ccccc3)nc3ccccc23)cc1` displayed a viability index of 0.596.

`Cc1cc2cc(C3C(C#N)=C(N)Oc4c3ccc3ccccc43)c(Cl)nc2cc1Cl` (stereo not drawn) showed a viability index of 0.545.

Consider `CCN(CC)c1ccc(C=Cc2ccc3ccc(OC)cc3[n+]2CC)cc1`, for which the viability index was 0.668.

`Clc1ccc(-c2csc3ncnc(NCc4ccncc4)c23)cc1` yielded a viability index of 0.739.

In turn, `Cc1cc(NC(=O)c2ccc(Br)cc2)no1` yielded a viability index of 0.74.

In the case of `CC(C)(C)NS(=O)(=O)c1cc(Cl)ccc1Cl`, the viability index was found to be 0.943.

In turn, `CCOC(=O)c1ccc(NC(=O)c2ccc3nc(NC(=O)c4ccc(C(=O)OC)cc4)sc3c2)cc1` yielded a viability index of 0.914.

With `O=[N+]([O-])c1ccc(S(=O)(=O)N2CCN(C(=S)NCC3CCCO3)CC2)cc1` (stereo not drawn), the viability index was found to be 0.471.

The compound `CCOC(=O)c1c(C)oc2c1c1c(c3ccccc32)OCN(C2CCCC2)C1` came in with a viability index of 0.769.

Consider `CC1=C(C=CC(C)C=NNC(=O)c2ccncc2)C(C)(C)CCC1` (stereo not drawn), for which the viability index was 0.575.

`COc1cc(C(=O)NC(c2ccccc2Cl)c2cc(Cl)c3cccnc3c2O)cc(OC)c1OC` (stereo not drawn): the viability index stood at 1.16.

In the case of `CCCCOc1ccc(C(=O)NCCOc2cccc(OC)c2)cc1`, the viability index came to 0.956.

`COc1ccc(OCC(=O)Nc2c(C)n(C)n(-c3ccccc3)c2=O)cc1` came in with a viability index of 1.04.

In the case of `CCCN(CCC)C(=O)Cn1ccc(=N)c2ccccc21`, the viability index is 0.558.

In the case of `CC(C)C(=O)NC(Nc1ccc([N+](=O)[O-])cc1)C(Cl)(Cl)Cl` (stereo not drawn), the viability index stood at 0.67.

Compound `O=C1C(Cc2ccccc2)N=C2c3ccccc3N=C(SCc3ccc(Cl)cc3)N12` (stereo not drawn) registered a viability index of 0.884.

In turn, `CC1=C(C(=O)Nc2ccc(C)cc2C)C(c2cc(Br)ccc2F)n2ncc(C(=O)Nc3ccc(C)cc3)c2N1` (stereo not drawn) gave a viability index of 0.39.

Compound `Cc1ccc(NC(=O)c2sc3nc4c(c(-c5cccs5)c3c2N)CCCCC4)cc1` yielded a viability index of 0.851.

The compound `CCOP1(=O)COc2ccccc2OC1` showed a viability index of 1.3.

`CCN(CC)c1nc(S)nc(NC(C)(C)C)n1`: the viability index stood at 0.779.

Compound `COc1ccc(N2C(N)=NC(N)=NC23CCCC3)cc1` showed a viability index of 0.607.

For `CCCOC(=O)CSc1nc(N)c(C#N)c(-c2ccco2)c1C#N`, the viability index came to 0.634.

Take `O=C(c1cc2n(n1)C(C(F)(F)F)CC(c1cccs1)N2)N1CCN(C(c2ccccc2)c2ccccc2)CC1` (stereo not drawn): the viability index came to 0.691.

`CN1CCN(C(=S)NC(=O)/C=C/c2ccc(F)cc2)CC1` registered a viability index of 0.882.

The compound `CC(C)(C)c1ccc(CNC(=O)C(Cc2ccc(O)cc2)c2ccccc2)cc1` (stereo not drawn) displayed a viability index of 0.829.

Consider `CCCCNCCOCCOc1ccc(Br)cc1`, for which the viability index is 0.577.

Compound `CCN(CC)CCCN(Cc1cc2ccc(OC)cc2[nH]c1=O)C(=S)NCc1ccccc1` gave a viability index of 0.642.

In the case of `CC(C)(C)C1CCc2[nH]c3ccccc3c(=O)c2C1` (stereo not drawn), the viability index was 0.604.

With `Cc1cc(C)nc(Nc2nc(C)c3cc(C)c(C)cc3n2)n1`, the viability index worked out at 0.196.

For `O=C(NC(=S)Nc1ccc(-c2nc3ccccc3s2)cc1)c1ccc(S(=O)(=O)N2CCCC2)cc1`, the viability index amounted to 0.769.

In turn, `Cc1ccnc(NC(c2ccc3ccccc3c2)c2ccc3cccnc3c2O)c1` (stereo not drawn) had a viability index of 0.869.

For the compound `O=C(CN1C(=O)c2ccccc2C1=O)Nc1cc(Cl)ccc1C(=O)O`, the viability index was found to be 1.04.

Take `Oc1ccc(CN2CCCCC2)nc1-c1ccccc1`: the viability index was determined as 0.746.

`COC(=O)C1=C(C)NC(=Cc2cc(C)n(-c3ccccc3C(F)(F)F)c2C)C1=O` gave a viability index of 0.591.

`Nc1c(Cl)c(Cl)nc(C(Cl)(Cl)Cl)c1Cl` yielded a viability index of 0.661.

In turn, `O=C(C=Cc1ccccc1)Nc1ccc(-c2nc3cc(NC(=O)C=Cc4ccccc4)ccc3[nH]2)cc1` returned a viability index of 0.11.

Consider `Cc1cc(-c2ccc(O)c(CN3CCCCCC3)c2)c2ccccc2n1`, for which the viability index turned out to be 0.769.

Consider `CCOC(=O)C1CCN(C(=O)C(=O)Nc2ccc3nc4n(c(=O)c3c2)CCCCC4)CC1`, for which the viability index was found to be 0.703.

Take `C=CCn1c(COc2ccccc2C)nnc1SCC(=O)O`: the viability index stood at 1.09.

In turn, `CCc1cc(=O)n(C)c(SC(CC)C(=O)Nc2ccc(F)cc2)n1` (stereo not drawn) had a viability index of 1.05.

In turn, `COc1ccc(/C=C2\SC(=S)N(CC(=O)NNC(=O)c3ccncc3)C2=O)cc1` had a viability index of 0.928.

The compound `Clc1ccc(Nc2nc(NCc3ccco3)c3ccccc3n2)cc1` yielded a viability index of 0.78.

In turn, `CCn1c(SCC(=O)Nc2ccc(OC)cc2)nc2ccsc2c1=O` showed a viability index of 0.83.

The compound `O=C(NNc1nc(-c2cc3ccccc3oc2=O)cs1)c1ccccc1` yielded a viability index of 0.891.

The compound `Cc1cn2c3ccccc3n(CCN3CCCC3)c2n1` returned a viability index of 0.632.

For the compound `CN(C)c1cc[n+](CC(=O)Nc2ccc(Cl)cc2)cc1`, the viability index was determined as 0.785.

For `CCOC(=O)c1ccc2c(c1)[C@@H]1C=CC[C@@H]1[C@H](c1cccc(OC)c1OC)N2`, the viability index was determined as 0.776.

Compound `O=C(NCc1nnc(SCC2CCCO2)n1Cc1ccccc1)c1cccc2ccccc12` (stereo not drawn) had a viability index of 0.894.

`CCOC(=O)c1cnc(SCC(=O)Nc2cc(C)ccc2C)nc1N`: the viability index stood at 1.2.

As to `COCCNC(=O)C(c1ccc(C)cc1)N(Cc1ccccc1)C(=O)CCC(=O)Nc1nccs1` (stereo not drawn), the viability index is 0.932.

`Cc1ccn2c(NC(C)(C)CC(C)(C)C)c(-c3ccccc3OC(=O)c3ccc(Br)cc3)nc2c1`: the viability index is 0.619.

The compound `CCN1CCN(Cc2c(O)ccc3c(=O)c(Oc4cccc(C)c4)c(C(F)(F)F)oc23)CC1` displayed a viability index of 0.762.

Turning to `Cc1sc2ncnc(Nc3ccncc3)c2c1C`, the viability index came out at 0.75.

Consider `Cc1nonc1C(=O)NN=Cc1ccc([N+](=O)[O-])o1`, for which the viability index came to 0.871.

The compound `O=C(c1cnn(-c2ccccc2)c1C(F)(F)F)N1CCN(c2ccnc3cc(Cl)ccc23)CC1` came in with a viability index of 0.386.

In turn, `COc1ccc(C=C2SC(Nc3ccc(F)cc3)=NC2=O)c(OC)c1` returned a viability index of 0.869.

`Cc1oc2c(c1C(=O)N1CCC(C)CC1)C(=O)c1ccccc1C2=O` displayed a viability index of 0.587.

With `COc1ccc(C=NNc2nc3ccccc3[nH]2)cc1OC`, the viability index is 0.847.

`C=CCSc1nc(N)c2c3c(sc2n1)CN(CCC)CC3` showed a viability index of 1.05.

`CCOC(=O)C1=C(C)N=c2sc(=Cc3cc(Cl)ccc3O)c(=O)n2C1c1ccc(OC)c(OC)c1` (stereo not drawn) gave a viability index of 0.942.

As to `COC(=O)c1ccc(C2C3=C(CC(c4ccc(C)cc4)CC3=O)Nc3ccccc3N2C(=O)c2cccs2)cc1` (stereo not drawn), the viability index came to 0.571.

Turning to `CC(C)NCC(O)Cn1c2ccc(Cl)cc2c2cc(Cl)ccc21` (stereo not drawn), the viability index was found to be 0.419.

Consider `Cc1ccc(C)n1-c1ccc(C(=O)N2CCC(C)CC2)cc1`, for which the viability index came out at 1.04.

For `O=C(c1ccc(N2CC3CC(C2)c2cccc(=O)n2C3)c(NS(=O)(=O)c2ccc3c(c2)OCCO3)c1)N1CCN(c2ccccn2)CC1` (stereo not drawn), the viability index is 0.967.

For the compound `O=C(CCNS(=O)(=O)c1ccc(Br)s1)N1CCc2ccccc2C1`, the viability index came out at 0.896.

The compound `Clc1ccc(-c2c[n+](-c3ccccc3)c3n2CCS3)cc1` displayed a viability index of 0.756.

In turn, `CN(c1ncnc2sc3c(c12)CCCC3)C1CCCCC1` displayed a viability index of 0.56.

Consider `Cn1ccnc1C(=O)NNc1ncc(C(F)(F)F)cc1Cl`, for which the viability index was found to be 0.294.
